# Data taken from paper PMC12032945, “Estrogenic activity of E2-conjugated GLP-1 is mediated by intracellular endolysosomal acidification and estrone metabolism” (Molecular Metabolism, 2025).
# System: ERα, ERβ, ERα/ERβ
# Details: saturating doses (1 μM); 24 h
compound,measurement,value
"C[C@]12CC[C@@H]3c4ccc(O)cc4CC[C@H]3[C@@H]1CC[C@@H]2O [E2, 17β-estradiol]","bias for ER subtype (ERα, ERβ, both)",do not show bias in engaging specific receptor subtypes at saturating doses
